Source: the supplement of paper PMC6531468
The list shows a part of the results. These are enrichments in a pooled selection; single values are uncertain. Scores sum up all selected molecules that hold the word; the word was not tested alone.

The sequences below were run on IMP3 KH1-4 (assay: 6-mer SELEX enrichment z-score vs GST control; IMP3 is the RNA-binding protein IGF2BP3; higher = more enriched by binding). Settings: construct: KH1-4 (164-579); SELEX round: R4.
IMP3 KH1-4, sequence (chain, as listed by the source): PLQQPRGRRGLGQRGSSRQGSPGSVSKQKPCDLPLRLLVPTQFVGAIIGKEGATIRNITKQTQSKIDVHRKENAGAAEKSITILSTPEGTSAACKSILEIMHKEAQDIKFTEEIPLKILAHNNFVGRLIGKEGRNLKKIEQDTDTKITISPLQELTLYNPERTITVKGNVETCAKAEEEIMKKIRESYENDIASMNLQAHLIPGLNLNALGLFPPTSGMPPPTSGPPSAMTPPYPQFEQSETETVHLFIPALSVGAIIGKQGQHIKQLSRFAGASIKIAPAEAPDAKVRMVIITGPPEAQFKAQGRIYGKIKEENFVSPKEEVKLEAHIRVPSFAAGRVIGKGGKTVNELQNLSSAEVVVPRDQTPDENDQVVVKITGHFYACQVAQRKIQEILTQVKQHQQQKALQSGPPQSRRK
Protocol: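 SELEX-seq with GST-tagged IMP3 KH1-4 (Pro164-Lys579) and an N40 RNA pool, round 4. 6-mer z-score of sequence-tag enrichment normalised to the corresponding GST SELEX round; RNA k-mers written as DNA (T for U).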
In the case of CCCGGC, the “6-mer SELEX enrichment z-score” value is reported as -0.448. For AATTCC, the “6-mer SELEX enrichment z-score” value was 0.763. With GGGCCT the “6-mer SELEX enrichment z-score” value was -0.497. With TGAAAT the “6-mer SELEX enrichment z-score” value was 0.859. For TATTCC, the “6-mer SELEX enrichment z-score” value was 0.719. For ACGGCT, the “6-mer SELEX enrichment z-score” value was 0.599. In the case of GCCCCT, the “6-mer SELEX enrichment z-score” value is reported as -0.316. In the case of GACTCC, the “6-mer SELEX enrichment z-score” value is reported as -0.664. With AAACCA the “6-mer SELEX enrichment z-score” value was -1.01. TTTTTT was tested, and the “6-mer SELEX enrichment z-score” value was 0.901. In the case of TGCAGC, the “6-mer SELEX enrichment z-score” value is reported as 0.593. With GGTGCC the “6-mer SELEX enrichment z-score” value was -1.25. For CTCGCT, the “6-mer SELEX enrichment z-score” value was -0.273. In the case of AAGGTT, the “6-mer SELEX enrichment z-score” value is reported as -0.077. For GTGTGT, the “6-mer SELEX enrichment z-score” value was 0.037. For GCGCAT, the “6-mer SELEX enrichment z-score” value was 0.173. For CCCCCA, the “6-mer SELEX enrichment z-score” value was 0.426. With AACGAA the “6-mer SELEX enrichment z-score” value was -0.927. With TTCTTC the “6-mer SELEX enrichment z-score” value was 0.789. CATGGG was tested, and the “6-mer SELEX enrichment z-score” value was 0.429. ATCCGG was tested, and the “6-mer SELEX enrichment z-score” value was -0.206. GTGGAG was tested, and the “6-mer SELEX enrichment z-score” value was 0.091. TCATTA was tested, and the “6-mer SELEX enrichment z-score” value was 1.5. For CGCTAA, the “6-mer SELEX enrichment z-score” value was 0.06. With CAAAAG the “6-mer SELEX enrichment z-score” value was -1.74. CCCTCC was tested, and the “6-mer SELEX enrichment z-score” value was -0.506. For ACCAAA, the “6-mer SELEX enrichment z-score” value was -2.29. With ATGCTG the “6-mer SELEX enrichment z-score” value was 0.621. With TATCTC the “6-mer SELEX enrichment z-score” value was 0.176. TTGGTA was tested, and the “6-mer SELEX enrichment z-score” value was -0.358. For TGTCGA, the “6-mer SELEX enrichment z-score” value was -0.805. In the case of CAGCAG, the “6-mer SELEX enrichment z-score” value is reported as 0.519. For GTGGTC, the “6-mer SELEX enrichment z-score” value was -0.073. With TAGTAG the “6-mer SELEX enrichment z-score” value was 0.087. With TGCAAT the “6-mer SELEX enrichment z-score” value was 0.808. For GCCAGT, the “6-mer SELEX enrichment z-score” value was 0.516. With TGGTAA the “6-mer SELEX enrichment z-score” value was -0.267. With CCCTCG the “6-mer SELEX enrichment z-score” value was -1.14. For CATATG, the “6-mer SELEX enrichment z-score” value was 1.38.
